In PubChem BioAssay AID743279 (National Center for Advancing Translational Sciences (NCATS), 2014):
Among all 360,000 compounds or so, about 17,000 (4.7%) were called active. Inconclusive results, whose numbers are uncertain, are shown with a selection of clear calls. No stated cut-off is given here; in the data, active means activity change below about -50%; inconclusive means mostly about -30% to -49%; inactive means weaker than that.

Experiment: qHTS for Inhibitors of Inflammasome Signaling: IL-1-beta AlphaLISA Primary Screen
Details: THP-1 LPS/ATP IL-1B secretion, 16 h; at 57.5 µM, stronger effect = lower value
How it was run: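 THP-1 cells pretreated 1 hr with compounds (up to 57.5 uM final), then stimulated with LPS (250 ng/mL final) plus ATP (1.25 mM final); secreted IL-1B measured by AlphaLISA after 16 hr, decreased signal indicating inhibition.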
On the % scale 0 is the no-effect control and ±100 the full control effect.

SMILES	activity change
O=C(N/C(=C/c1cccc(Br)c1)C(=O)N1CCCCC1)c1ccco1	inconclusive: -32.4%
COc1ccc(CCNC(=O)c2cc(C3CC3)on2)cc1OC	inactive: 5.23%
CC1CN(c2oc(COc3ccc(Cl)cc3Cl)nc2C#N)CC(C)O1 (stereo not given)	inconclusive: -33.7%
CCNc1nc(N)c(C(=C(C#N)C#N)c2ccccc2)s1	active: -74.7%
Cc1cccc(CN2CCc3c(OCC(=O)N4CCCc5ccccc54)cccc3C2=O)c1	inconclusive: -45.9%
CC(C)(C)c1ccc(C(=O)NCCC(=O)NNC(=O)COc2ccccc2F)cc1	inactive: 17.2%
COc1cc(OC)c(NC2=CC(=O)C(=O)c3ccccc32)cc1Cl	inconclusive: -45.5%
O=C(O)c1ccc(N/N=C/c2ccc(-c3cc(Cl)ccc3Cl)o2)cc1	inconclusive: -39.7%
COc1ccc(N(CC(=O)N2CCN(c3ccc(Cl)cc3)CC2)S(=O)(=O)c2c(C)noc2C)cc1	inconclusive: -33.7%
O=[N+]([O-])c1ccccc1S(=O)(=O)N1CCCC(C(F)(F)F)C1 (stereo not given)	inactive: 1.73%
COC(=O)CCCCCN1C(=O)/C(=C\c2ccncc2)SC1=S	inconclusive: -42.9%
Cc1ccc(-c2csc3ncnc(SCC(=O)O)c23)cc1	inactive: 11.3%
CC1CCCCN1CCCNC(=O)c1c(O)nc2ccccn2c1=O (stereo not given)	inactive: 2.25%
CC(=O)c1ccc(N=Nc2ccc(N(C)C)cc2)cc1	inconclusive: -46.6%
COc1c(N2CCN(C(=S)Nc3ccccc3F)C(C)C2)c(F)cc2c(=O)c(C(=O)O)cn(C3CC3)c12 (stereo not given)	inconclusive: -38%
COC(=O)c1sc(-c2ccc(Cl)cc2)cc1NC(=O)/C=C/C(=O)O	active: -95%
COc1ccc(C2Nc3ccccc3C(=O)N2NS(=O)(=O)c2ccc(C)cc2)cc1 (stereo not given)	inconclusive: -45.3%
CCOC(=O)c1cc(-c2ccc(F)cc2)n(CCC(=O)NC2CCN(Cc3ccccc3)CC2)c1C	inconclusive: -37.2%
Cc1c(C)c2ccc(OCC(=O)NCc3ccccn3)cc2oc1=O	inconclusive: -48%
CCC(OC(=O)C1=Cc2ccccc2OC1)C(=O)NC1CCCC1 (stereo not given)	inconclusive: -49.2%
COC(=O)c1ccc(COC(=O)C2CC(O)CN2S(=O)(=O)c2ccc([N+](=O)[O-])cc2)cc1 (stereo not given)	inactive: 44.6%
Cc1cccc(NC(=S)NCCN(C2CCCCC2)C2CCCC2)c1	active: -63.3%

SMILES	activity change
CC1=C(C(=O)Nc2cc(C(=O)N3CCN(c4cccc(C)c4C)CC3)ccc2C)SCCO1	inconclusive: -48.3%
Cc1c(NC(=O)c2cc(-c3cccs3)nc3ccccc23)c(=O)n(-c2ccccc2)n1C	active: -89.4%
CCOC(=O)c1cnn(-c2ccccc2)c1-n1cccc1	inactive: 3.42%
Cc1ccc(-c2noc(C3CCCN(S(=O)(=O)c4ccc5ccccc5c4)C3)n2)o1 (stereo not given)	inconclusive: -40.6%
Cc1cccnc1C(c1ccc(F)cc1)N(C)C(=O)C1CCN(CCOc2ccc(Cl)cc2Cl)CC1 (stereo not given)	active: -56.3%
Cc1cc2oc(C(=O)NCc3ccncc3)c(C)c2cc1C	inconclusive: -37.4%
COc1ccccc1C(=O)Nc1ccc(-c2nnc(SCC(=O)O)n2C)cc1	inconclusive: -46.7%
CC(Oc1ccc(Cl)cc1)C(=O)NCCN1C(=O)S/C(=C\c2cccnc2)C1=O (stereo not given)	active: -78%
Cc1ccc(O)c(-c2cc(-c3cccc(Br)c3)n[nH]2)c1	inconclusive: -39%
Cc1[nH]c2ccccc2c1/C=N/NC(=O)CNC(=O)Cc1ccccc1	inactive: 10.6%
Cc1noc(NS(=O)(=O)c2ccc(N/C=C\C(=O)c3cccc4ccccc34)cc2)c1C	inconclusive: -30.3%
COc1cc(NC(=S)NC(=O)c2ccccc2F)ccc1NC(=O)c1cccs1	inconclusive: -34.5%
C/C(=N\NC(=O)c1cc(C)nc2ccccc12)c1ccccn1	inactive: 143%
CCCN(CCC)CCNC(=O)C1CCN(S(=O)(=O)c2cccc3nsnc23)CC1	inactive: 10.7%
CCC(C)Sc1ccc([C@H]2N[C@@](CC(C)C)(C(=O)OC)[C@H]3C(=O)N(C)C(=O)[C@@H]23)cc1 (stereo not given in full)	inconclusive: -31.5%
CCN1C(=O)/C(=C\N2CCN(c3ccccc3)CC2)SC1=S	inconclusive: -31.1%
COc1cc(/C=C(\C#N)C(=O)NC2CCCCC2)ccc1OCc1ccc(C(=O)O)cc1	inactive: -19.7%
O=C(Nc1ccc(N2CCOCC2)c(Cl)c1)c1ccco1	inconclusive: -33.9%
Cc1ccc(C(=O)c2ccccc2C(=O)OCC(=O)NC(=O)NC(C)(C)C)cc1	inactive: 19.8%
COC(=O)CSc1nnc(CNC(=O)c2ccccc2F)n1-c1ccccc1	inconclusive: -42.1%
O=C(NCC(c1cccs1)N1CCOCC1)c1cc([N+](=O)[O-])ccc1Cl (stereo not given)	inactive: 2.02%
COc1ccc(CN(C(=O)c2ccc(-c3ccccc3)[nH]2)C(C(=O)NC(C)(C)C)c2ccncc2)cc1 (stereo not given)	active: -83.3%

SMILES	activity change
COc1ccc2[nH]c3c(c2c1)CCN1C(=O)C(CC(=O)NCC24CC5CC(CC(C5)C2)C4)C[C@H](C(=O)N2CCOCC2)[C@@]31C (stereo not given in full)	inconclusive: -37.1%
Cc1cccc2cc(CN(CCCN3CCOCC3)Cc3nnnn3C(C)(C)C)c(=O)[nH]c12	inactive: -10.2%
CCOc1cc(/C=N/NC(=S)Nc2ccccc2C(F)(F)F)ccc1OCC(=O)N1CCOCC1	inactive: -17.1%
Cc1cc(NCCCN)nc(-c2ccccc2O)n1	active: -61.7%
O=C(Nc1ccc(C(=O)N2CCOCC2)cc1)c1cc(-c2cccnc2)nc2ccc(Cl)cc12	inconclusive: -30.1%
C=COC(=O)CSc1snc(SCC(=O)OC)c1C#N	inconclusive: -34.7%
O=C(Nc1cc(Cl)ccc1N1CCOCC1)c1ccc2c(c1)OCO2	inconclusive: -40.2%
Cc1cccc(C)c1NC(=O)CN1C(=O)NC(C)(CCc2ccccc2)C1=O (stereo not given)	inactive: -3.36%
COc1ccc(CN2C(=O)c3cccnc3C2=O)cc1S(=O)(=O)NC1CCCCC1C (stereo not given)	inactive: 10.7%
C[C@]12c3[nH]c4ccc(Cl)cc4c3CCN1C(=O)[C@@H](CC(=O)NCc1ccco1)C[C@@H]2C(=O)N1CCCCC1	active: -55%
N#C/C(=C/c1ccccc1)C(=O)NCc1ccccc1	active: -77.3%
CCCn1c(SC(C)C(=O)N2CCOCC2)nc2ccc(Br)cc2c1=O (stereo not given)	inactive: -10.9%
COC(=O)CNC(=O)COC(=O)/C=C/c1cccs1	inconclusive: -35.6%
CCCCn1ccnc1C(=O)c1ccc(S(=O)(=O)N2CCCC2)cc1	inconclusive: -39.1%
COc1ccc(-c2[nH]ncc2/C=N/NC(=O)c2cccc([N+](=O)[O-])c2)cc1OC	inactive: 0%
Cc1nnc(NC(=O)c2c(-c3ccccc3)noc2C)s1	inactive: 11.1%
Cc1cc(/C=N/NC(=O)c2cccc([N+](=O)[O-])c2)c(C)n1-c1ccc(Cl)cc1Cl	active: -60.8%
CCOC(=O)C1=C(N)Oc2cc(O)ccc2C1c1cccc([N+](=O)[O-])c1 (stereo not given)	active: -97.5%
CN(CC(=O)Nc1ccc(Cl)cc1)CC(=O)Nc1cccc(Br)c1	inconclusive: -31.8%
COc1ccc(/C(N)=N/OC(=O)Cc2ccc(OC)c(OC)c2)cc1	active: -77.8%
O=C(CSc1ncnc2c1cnn2-c1ccccc1)Nc1ccc2c(c1)OCO2	inactive: -5.03%
O=C(Nc1ncc(S(=O)(=O)c2ccc([N+](=O)[O-])cc2)s1)c1cccnc1	inconclusive: -35.7%

SMILES	activity change
Fc1ccc(-c2nc(-c3cccs3)[nH]c2-c2ccc(F)cc2)cc1	active: -62.8%
O=C(Nc1ccc(OC(F)(F)F)cc1)N1CCN(c2ccnc3cc(Cl)ccc23)CC1	inconclusive: -37.4%
O=[N+]([O-])c1ccc(O)c(-c2cc(C(F)(F)F)nc(-c3ccccc3)n2)c1	active: -61.7%
CCOC(=O)c1ccc(Nc2cc(C)nc(-c3ccccc3O)n2)cc1	inconclusive: -44.3%
COc1ccc(/C=C2\SC(=Nc3ccccc3OC)NC2=O)cc1	inconclusive: -30.8%
O=C(Nc1ccc2oc(-c3cccnc3)nc2c1)c1ccco1	inconclusive: -37.1%
CNC(=O)c1ccc(Nc2nc(-c3ccccc3)nc3ccccc23)cc1	active: -89.8%
CS(=O)(=O)N1CCC(Oc2cccc(C(=O)NCCCC3CCCC3)c2)CC1	inconclusive: -35.8%
O=C(O)c1ccc(NN=CC2=C(N3CCOCC3)/C(=C/c3ccccc3)CC2)cc1	inconclusive: -32%
CS(=O)(=O)N(CC(=O)NC1CC2CCC1C2)c1ccc(Oc2ccccc2)cc1 (stereo not given)	inconclusive: -48.7%
CCCOc1ccc(S(=O)(=O)N2CCCC2)cc1[N+](=O)[O-]	inconclusive: -34.5%
C[n+]1nc(Nc2ccccc2)sc1-c1ccc(O)cc1	inactive: -14.6%
CCCC(=O)N1CCN(c2nc(CC(C)C)c3c(c2C#N)CCC3)CC1	active: -71.9%
O=c1c2ccccc2nc(/C=C/c2ccc(Br)cc2)n1CCCO	inconclusive: -46%
Cc1cccn2c(=O)nc(SCC(=O)N3CCN(c4ccccc4)CC3)nc12	inactive: -10.1%
COc1cc(CNc2ccc(NC(C)=O)cc2)ccc1OCc1ccccc1C	inconclusive: -36.5%
COc1ccc(C2c3ccc4ccccc4c3Oc3ncn(CCO)c(=N)c32)cc1OC (stereo not given)	inconclusive: -46%
CC(C)Cn1c(=O)c2ccccc2c2ccccc2c1=O	inconclusive: -33.2%
CCCCCCOC(=O)C(C#N)c1nc2ccccc2nc1N1CCN(CC)CC1 (stereo not given)	inconclusive: -46.1%
